Data taken from the supplement of paper PMC6746778.
Structures can show the parent of a compound that is named as a salt. The list shows a part of the results. Most values come without repeats; read them as rough.

How the values were obtained:
Assay in all cases: proliferation Z-score within cell line (SRB, relative to all inhibitors screened on that line); triple-negative breast cancer lines and a kinase inhibitor library; SRB is the sulforhodamine B protein stain; higher = less growth inhibition (more resistant)
Settings in all cases: concentration: 1 µM; 4 days
Bt20 = tested on: Bt20
Bt549 = tested on: Bt549
HCC1143 = tested on: HCC1143
HCC1806 = tested on: HCC1806
HCC1937 = tested on: HCC1937
HCC38 = tested on: HCC38
HCC70 = tested on: HCC70
Hs578T = tested on: Hs578T
MDA-MB-231 = tested on: MDA-MB-231
MDA-MB-435s = tested on: MDA-MB-435s
MDA-MB-436 = tested on: MDA-MB-436
MDA-MB-453 = tested on: MDA-MB-453
MDA-MB-468 = tested on: MDA-MB-468
SKBR7 = tested on: SKBR7
SUM1315MO2 = tested on: SUM1315MO2
SUM149PT = tested on: SUM149PT
SUM159PT = tested on: SUM159PT
SUM185PE = tested on: SUM185PE
SUM229PE = tested on: SUM229PE
SUM52PE = tested on: SUM52PE
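Also: Single-dose primary screen of a 378-member kinase inhibitor library in 96-well plates, with growth read as absorbance of protein-bound SRB dye after TCA fixation.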

Compound	proliferation Z-score within cell line (Bt20)	proliferation Z-score within cell line (Bt549)	proliferation Z-score within cell line (HCC1143)	proliferation Z-score within cell line (HCC1806)	proliferation Z-score within cell line (HCC1937)	proliferation Z-score within cell line (HCC38)	proliferation Z-score within cell line (HCC70)	proliferation Z-score within cell line (Hs578T)	proliferation Z-score within cell line (MDA-MB-231)	proliferation Z-score within cell line (MDA-MB-435s)	proliferation Z-score within cell line (MDA-MB-436)	proliferation Z-score within cell line (MDA-MB-453)	proliferation Z-score within cell line (MDA-MB-468)	proliferation Z-score within cell line (SKBR7)	proliferation Z-score within cell line (SUM1315MO2)	proliferation Z-score within cell line (SUM149PT)	proliferation Z-score within cell line (SUM159PT)	proliferation Z-score within cell line (SUM185PE)	proliferation Z-score within cell line (SUM229PE)	proliferation Z-score within cell line (SUM52PE)
O=C(O)c1ccc(Nc2ncc3c(n2)-c2ccc(Cl)cc2C(c2c(F)cccc2F)=NC3)cc1	-1.63	-0.653	0.878	-0.842	0.717	-0.701	0.507	-0.789	-0.0765	-0.62	0.816	-1.58	-1.5	-0.921	-0.715	-0.186	0.148	-0.258	-0.288	-0.762
O=c1c(-c2ccc(O)cc2)coc2cc(O)cc(O)c12 [Genistein]	-0.121	0.394	0.691	0.481	0.857	0.319	0.477	0.547	0.632	0.779	0.513	0.459	0.571	-0.0951	0.594	0.37	0.383	-0.0161	0.0525	0.449
CCN1CCN(Cc2ccc(Nc3ncc(F)c(-c4cc(F)c5nc(C)n(C(C)C)c5c4)n3)nc2)CC1	-0.504	-0.407	-1.4	-0.658	0.0936	0.323	0.536	-0.38	-1.81	-1.35	-1.01	-1.53	-0.309	-0.989	-0.21	-0.902	-0.359	0.0935	-0.816	-0.725
CN1CCN(CCOc2cc(OC3CCOCC3)c3c(Nc4c(Cl)ccc5c4OCO5)ncnc3c2)CC1 [Saracatinib (AZD0530)]	0.0557	0.731	-0.409	-2.04	-0.887	-0.39	0.516	0.41	-0.842	0.532	0.151	0.855	0.397	0.695	-0.189	0.208	0.31	1.68	-0.45	0.659
CN1CC[C@H](c2c(O)cc(O)c3c(=O)cc(-c4ccccc4Cl)oc23)[C@H](O)C1 [Flavopiridol HCl]	-1.99	-2.05	-2.21	-1.97	-2.29	-2.47	-1.92	-2.13	-1.58	-1.78	-1.95	-1.45	-1.57	-1.94	-2.2	-1.96	-2.31	-1.08	-1.81	-1.18
CS(=O)(=O)CCNCc1ccc(-c2ccc3ncnc(Nc4ccc(OCc5cccc(F)c5)c(Cl)c4)c3c2)o1	0.257	0.369	0.537	-0.869	0.615	0.433	0.339	0.58	1.21	0.737	0.465	-0.348	-0.489	-0.896	0.426	0.162	0.432	0.248	-0.134	0.779
CNC(=O)c1cc(Oc2ccc(NC(=O)Nc3ccc(Cl)c(C(F)(F)F)c3)cc2)ccn1 [Sorafenib Tosylate]	1	0.804	-0.329	1.05	0.199	0.437	-0.921	0.582	0.449	0.471	-0.142	-0.0639	1	-0.796	0.438	0.615	0.394	0.0425	1.43	-0.91
COc1cc(CCc2cc(NC(=O)c3ccc(N4CC(C)NC(C)C4)cc3)n[nH]2)cc(OC)c1 (stereo not given)	1.17	0.226	0.534	0.843	0.599	0.581	0.871	0.57	0.84	1.01	1.29	-0.71	1.37	0.959	-0.742	0.942	0.664	-1.26	0.72	-1.19
Cc1ccc(S(=O)(=O)C=CC#N)cc1	0.54	0.664	0.493	0.845	0.533	0.541	0.451	0.561	0.592	0.683	0.442	0.885	0.823	0.775	0.834	0.574	0.389	0.435	0.565	0.745
CCN(CCO)CCCOc1ccc2c(Nc3cc(CC(=O)Nc4cccc(F)c4)[nH]n3)ncnc2c1 [Barasertib (AZD1152-HQPA)]	-1.74	-0.419	0.322	-0.252	0.56	-0.626	-1.43	-0.176	-0.333	-0.462	-0.247	-0.658	-1.4	-0.361	0.324	0.234	0.594	0.284	-0.188	0.727
O=C1NC(=O)/C(=C/c2cccc(C(F)(F)F)c2)S1	0.509	0.308	0.422	0.432	0.642	0.381	0.518	0.587	0.828	0.812	0.808	0.262	0.866	0.606	0.987	0.622	0.413	0.814	0.558	0.966
CO[C@H]1C[C@@H]2CC[C@@H](C)[C@@](O)(O2)C(=O)C(=O)N2CCCC[C@H]2C(=O)O[C@H]([C@H](C)C[C@@H]2CC[C@@H](OCCO)[C@H](OC)C2)CC(=O)[C@H](C)/C=C(\C)[C@@H](O)[C@@H](OC)C(=O)[C@H](C)C[C@H](C)/C=C/C=C/C=C/1C [Everolimus (RAD001)]	-1.32	-2.06	-0.388	0.423	-1.27	-0.487	-1.35	-2.38	-0.705	-0.603	-1.39	-1.75	-0.676	-0.974	-0.952	-0.456	-0.704	-0.979	-0.97	-0.995
CNC(=O)c1cc(Oc2ccc(NC(=O)Nc3ccc(Cl)c(C(F)(F)F)c3)c(F)c2)ccn1 [Regorafenib (BAY 73-4506)]	0.816	0.672	1.06	1.37	0.473	0.494	0.451	-0.0618	-0.828	-1.02	-0.0591	0.393	0.913	0.817	0.418	0.899	0.603	0.615	1.44	-0.312
O=C(NCCO)c1cccc(-c2cc(Nc3ccc(OC(F)(F)F)cc3)ncn2)c1	0.685	0.68	0.536	1.19	0.585	0.472	0.463	0.501	0.535	0.752	0.498	0.625	0.796	0.832	0.785	0.657	0.48	0.797	0.25	0.891
CN1CCN(c2ccc3nc(-c4c(N)c5c(F)cccc5[nH]c4=O)[nH]c3c2)CC1 [Dovitinib (TKI-258, CHIR-258)]	0.314	0.29	-0.0759	0.113	0.73	0.376	0.262	0.463	-0.164	-0.833	0.173	0.917	-0.0902	-0.0891	-1.7	-0.462	0.35	-1.49	0.0539	-1.34
Cc1ccc(C(=O)Nc2ccc(CN3CCN(C)CC3)c(C(F)(F)F)c2)cc1C#Cc1cnc2[nH]ncc2c1	-0.759	-1.77	-0.596	-0.3	-1.07	-0.243	0.319	-1.49	-2.75	-2.3	-0.374	-1.5	0.238	-0.582	-2.3	-1.23	-2.81	-2.41	-1.61	-1.82
COc1ccc(COc2cc3oc(=O)c4cc(C(C)O)ccc4c3cc2OC)cc1 (stereo not given) [Palomid 529 (P529)]	0.629	0.726	0.486	0.456	0.519	0.325	0.418	0.659	0.577	0.66	1.08	0.596	0.687	0.394	0.555	0.629	0.484	0.709	0.207	0.8
CCS(=O)(=O)c1cccc(-c2cc(C(=O)NC3CCN(C)CC3)c(C)c3[nH]c4ncc(C)cc4c23)c1	-0.628	-0.513	-0.192	-0.709	0.0955	-1	-1.16	-0.164	-1.25	-0.448	-0.51	-0.248	-1.35	-0.739	-1.38	-0.971	0.7	-1.38	-0.691	-1.24
O=C(NC1CCNCC1)c1n[nH]cc1NC(=O)c1c(Cl)cccc1Cl	-2.62	-2.82	0.889	-2.15	1.04	-2.76	0.811	-2.96	-2.07	-2.02	0.637	-1.96	-1.85	-2.53	-2.34	-2.32	0.494	-1.52	-2.41	-1.04
O=C1Nc2ccc(I)cc2C1=Cc1cc(Br)c(O)c(Br)c1	0.566	0.608	0.799	1.21	0.519	0.492	0.639	0.632	-0.054	-0.0675	0.55	0.705	0.09	0.435	0.0933	0.396	0.427	0.481	0.506	0.793
COc1cc(OC)c(/C=C/S(=O)(=O)Cc2ccc(OC)c(NCC(=O)O)c2)c(OC)c1	-1.7	-2.56	-0.13	-2.02	0.579	-2.85	0.677	-2.19	-1.91	-1.77	-0.991	-2	-1.74	-2.59	-1.92	-2.24	-0.321	-1.82	-1.31	-1.3
Cc1cc(C(C)Nc2ccccc2)c2nc(N3CCOCC3)cc(=O)n2c1 (stereo not given)	1.11	-0.218	-0.586	-0.144	-2.03	0.261	-1.72	0.375	0.837	0.697	-2.07	0.774	-0.126	0.0525	0.33	0.686	-1.24	0.986	0.626	0.292
O=C(Nc1cccc(Nc2ncc(Br)c(NCCc3cnc[nH]3)n2)c1)N1CCCC1	0.273	-0.591	-0.851	0.22	-0.893	-0.454	0.641	0.402	-0.728	0.221	0.448	-0.902	-1.64	0.409	-0.922	0.392	0.594	-1.2	0.341	-1.37
S=C(NCc1ccc2c(c1)OCO2)N1CCN(c2ncnc3c2oc2ccccc23)CC1 [Amuvatinib (MP-470)]	-0.573	0.361	-0.532	0.31	-0.389	0.399	0.427	0.582	-0.00596	0.0898	0.268	0.353	-0.281	-0.194	0.332	-0.514	0.44	-0.168	0.297	0.0495
O=C(Nc1nc2cccc(-c3ccc(CN4CCS(=O)(=O)CC4)cc3)n2n1)C1CC1 [Filgotinib (GLPG0634)]	0.549	0.283	0.394	0.313	0.419	0.469	0.548	0.398	0.588	0.657	0.433	0.655	0.584	0.759	0.663	0.699	0.531	0.992	0.339	0.488
